Assay results as given in PubChem BioAssay AID1346428 (National Center for Advancing Translational Sciences (NCATS), 2018).
The campaign covered roughly 48,000 compounds. About 1,200 (2.5%) were called active. Not shown: some 2% with an inconclusive outcome.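 How the source made its calls: active means activation of at least 60% and not above a set upper limit (about 1 call in 100 departs from these limits); inconclusive means activation of 40% to 60%, or above that upper limit; inactive means activation under 40%.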 This is one part of the list.

target: Probable G-protein coupled receptor 32 (Homo sapiens) (UniProt O75388); test: qHTS for Agonists of Human Resolvin D1 Receptor DRV1; details: CHO-K1 GPR32 beta-arrestin PathHunter luminescence, 90 min; at 76.9 µM; active compounds read high; zero percent set by DMSO-only wells; further: 0% is about no effect
Sequence of UniProt O75388 (O75388 whole entry, looked up, the tested form may be a part): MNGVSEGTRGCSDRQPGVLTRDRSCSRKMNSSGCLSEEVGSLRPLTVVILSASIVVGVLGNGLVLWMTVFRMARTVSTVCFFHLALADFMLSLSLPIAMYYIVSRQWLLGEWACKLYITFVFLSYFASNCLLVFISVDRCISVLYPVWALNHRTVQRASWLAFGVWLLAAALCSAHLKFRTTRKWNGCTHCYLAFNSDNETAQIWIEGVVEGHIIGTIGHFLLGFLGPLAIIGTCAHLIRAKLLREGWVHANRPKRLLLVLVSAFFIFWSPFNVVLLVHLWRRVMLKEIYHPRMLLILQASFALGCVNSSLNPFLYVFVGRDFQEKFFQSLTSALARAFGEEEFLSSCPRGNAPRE
Summary of the method: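 Agonism was scored as beta-arrestin recruitment to ProLink-fused GPR32 in stably transfected CHO-K1 cells, giving a chemiluminescent beta-Gal signal; compounds were incubated 90 min at 37 °C.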

Row | Structure (SMILES) | activation
1 | COCCCNC(=O)c1cc2n(n1)CCCN(Cc1ccc(C)cc1)C2=O | inactive: 7.26%
2 | CCC(=O)N1c2ccccc2CC1C(=O)NCc1ccccc1C (configuration not stated) | inactive: -8.44%
3 | O=C(CSc1nnc(CNC(=O)c2c(F)cccc2Cl)o1)Nc1ccccc1F | inactive: -10.4%
4 | COc1ccccc1-c1c(C)nn2c(N3CCN(c4cccc(Cl)c4)CC3)cc(C)nc12 | inactive: -4.15%
5 | Cc1c(NS(=O)(=O)c2cccc(C(=O)O)c2)c(=O)n(-c2ccccc2)n1C | inactive: 25%
6 | COc1ccc(OC)c(NC(=O)c2cc3c(s2)-c2ccccc2SC3)c1 | inactive: -15.8%
7 | CC1=C(C(=O)OCc2ccc(C)cc2)C(c2c(Cl)cccc2Cl)CC(=O)N1 (configuration not stated) | inactive: 27.2%
8 | Cc1ccc(-n2ncc(C(=O)NC3CCCC3)c2C2CCN(C(=O)OC(C)(C)C)CC2)c(C)c1 | inactive: -27.7%
9 | CS(=O)(=O)c1ncc(N(Cc2ccco2)Cc2ccco2)c(C(=O)Nc2ccccc2Br)n1 | inactive: -2.93%
10 | COc1cccc(Cn2nnc3c(=O)[nH]c(C4CCCN(C(=O)c5ccc(C)cc5)C4)nc32)c1 (configuration not stated) | inactive: -21.6%
11 | CNc1nc(Oc2ccc(=O)n(C)n2)nc(N2CCOCC2)n1 | inactive: 6.63%
12 | Cc1ccc(C)c(NS(=O)(=O)c2ccc3c4c(cccc24)C(=O)N3)c1 | inactive: 11.2%
13 | O=S(=O)(c1ccc2ccccc2c1)n1nc(-c2ccco2)nc1NCc1ccc(F)cc1 | inactive: -20%
14 | Cc1cc(C)cc(C(=O)N(Cc2nc(-c3ccc(Cl)cc3)no2)C(C)C)c1 | inactive: 11.5%
15 | CCOc1ccccc1NC(=O)CN1C(=O)CC(c2ccco2)Sc2ccccc21 (configuration not stated) | inactive: -31%
16 | Cc1cc(NC(=O)CCCn2c(C)c3cnn(-c4ccccc4)c(=O)c3c2C)ccc1Br | inactive: -18.3%
17 | CCN(C(=O)CSc1ncc(S(=O)(=O)c2ccc(C)c(Cl)c2)c(=O)[nH]1)c1cccc(C)c1 | active: 75.4%
18 | COC(=O)c1ccc(OCC(O)Cn2cnc3cc(C)c(C)cc32)cc1 (configuration not stated) | inactive: -11%
19 | COCCNC(=O)C(=O)NCC(c1ccc2c(c1)OCO2)N1CCOCC1 (configuration not stated) | inactive: -13.8%
20 | COCCCNC(=O)c1c(NC(=O)c2nc(S(C)(=O)=O)ncc2Cl)sc2c1CCCC2 | inactive: -3.78%
21 | Cc1ccc(C(=O)Nc2ccc(-c3nc4ccccc4s3)c(O)c2)c(C)c1 | inactive: -4.97%

Row | Structure (SMILES) | activation
22 | CCCCN(C)CCNC(=O)c1cc(=O)[nH]c2ccc(S(=O)(=O)N3CCCCCC3)cc12 | inactive: -6.93%
23 | Cc1cc(NC(=O)c2ccc(-c3ccc(Cl)cc3)o2)cc(-c2nc3ncccc3o2)c1O | inactive: 19.6%
24 | Cc1ccc(CNC(=O)c2cnc(N(C)C)nc2)cc1 | inactive: -2.54%
25 | COc1ccc(-c2nc(C(=O)Nc3cccc(C(C)=O)c3)nn2-c2ccc(Cl)cc2)cc1 | inactive: -15.5%
26 | Cc1nc(-n2nc(C)c(Cc3ccccc3Cl)c2C)sc1C(=O)N1CCCCC1C (configuration not stated) | inactive: -1.62%
27 | COc1ccc(NC(=O)c2oc3ccccc3c2NC(=O)c2cc(=O)c3c(C)cc(C)cc3o2)cc1 | inactive: -24.9%
28 | Cc1ccc(NC(=O)CS(=O)(=O)c2nc(-c3ccc(C)cc3)cn2-c2ccc(C)cc2)cc1 | inactive: -26.4%
29 | CCCCc1ccc(-n2nc3cc(C)c(NC(=O)Cc4ccccc4)cc3n2)cc1 | inactive: -64.8%
30 | Cc1ccc2cccc(NC(=O)COc3ccccc3[N+](=O)[O-])c2n1 | inactive: -5.97%
31 | COC(=O)c1ccccc1NC(=O)Cn1cc(S(=O)(=O)Cc2ccccc2F)c2ccccc21 | inactive: -12.7%
32 | CCOC(=O)c1c(C)oc2nc(C)nc(NCc3ccccc3Cl)c12 | inactive: 5.49%
33 | Cc1cc(Nc2ccc(C)c(C)c2)n2cnnc2n1 | inactive: -6.22%
34 | COc1ccc2c(c1)c1c(c(=O)n(-c3ccccc3C)c(=O)n1CC(=O)NCc1ccc(C)cc1)n2C | inactive: 6.22%
35 | Cc1cccc(OCc2ccc(-c3nc(C#N)c(NCCN(C)C)o3)o2)c1 | inactive: -17.4%
36 | Cc1ccc(S(=O)(=O)c2cnc(SCC(=O)Nc3cc(C)cc(C)c3)nc2N)cc1 | inactive: -6.36%
37 | CCCN(CCC)C(=O)CSc1nnc2cc(C)c3cc(C)cc(C)c3n12 | inactive: -2.36%
38 | CCN(CC)c1ccc(NC(=O)CSc2nnc(C)c(=O)[nH]2)cc1 | inactive: -4.23%
39 | CCOC(=O)c1c(NC(=O)COc2ccccc2F)sc2c1CCCC2 | inactive: -7.28%
40 | Cc1cccc(CN2C(=O)c3ccccc3Sc3ccc(C(=O)N4CCCC4)cc32)c1 | inactive: -36.2%
41 | O=C(Nc1cc(Cl)cc(Cl)c1)c1ccc(F)c(S(=O)(=O)NC2CCCC2)c1 | inactive: 9.48%
42 | CCc1ccc(N(CC)C(=O)c2ccc3c(=O)n4c(nc3c2)CCCCC4)cc1 | inactive: -8.37%
